# Some of the results follow.
# System: T1, C. trachomatis L2/434/Bu expressing GFP (CTL2-GFP)
# T1 construct: L2/434/Bu GFP intracellular growth in HeLa cells
# Set-up: species or system HeLa; C. trachomatis total inclusion area by high-content imaging, normalised to DMSO
# Settings: total inclusion area; 28.5 h, 10 µM; inhibitor
# How it was run: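 High-content imaging followed the bulk GFP/resorufin measurement: fixed, Hoechst-stained cells were scored for GFP inclusions and host nuclei per well. Total inclusion area and count served as growth proxies, nuclei number as the viability proxy. MIC calculation matched the bulk assay.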
row,Structure (SMILES),% of control remaining
1,COc1cc(-c2cc(N(C)CCN(C)C)n3nccc3n2)cc(OC)c1OC [CBK037181],82.1529
2,CC(NC(=O)c1cccc2ccccc12)c1ccc2ccccc2c1 (centres unmarked) [CBK267646],105.871
3,COC(=O)[C@@H]1Cc2ncn(Cc3ccc(OC)cc3)c2CN1C(=O)c1ccc(C#N)cc1 [CBK288982],98.3111
4,CN(C)CCCNc1nc(-c2cccc(Cl)c2)nc2ccccc12 [CBK267284C],59.6639
5,Nc1ncc(-c2ccncc2)nc1-c1cccc2c1oc1ccccc12 [CBK063889],185.033
6,O=C(/C=C/c1cccnc1)Nc1ccccc1N1CCNCC1 [CBK034136T],79.2814
7,Cc1cc(-c2ccc(=O)n(CCNC(=O)c3cccs3)n2)c(C)o1 [CBK284461],102.63
8,O=C(NCCCC1CCOC1)c1[nH]nc2c1CCCCC2 (centres unmarked) [CBK283154],100.325
9,CC(=O)NCc1cccc(-c2cc(C(=O)NCCc3cccc(OC(F)(F)F)c3)cnc2-c2ccc(Cl)cc2)c1 [CBK164414],77.2388
10,Cc1ccc2[nH]nc(C(=O)NC(C)c3ccccn3)c2c1 (centres unmarked) [CBK281887],103.428
11,CN(C)CCN(C)c1cncc(-c2ccc(F)cc2F)n1 [CBK065652],105.698
12,O=C(O)c1ccc(COc2ccccc2/C=N/O)cc1 [CBK288481],64.1597
13,O=C(Nc1nc2ccc(Br)cc2s1)C1CC2CCC1C2 (centres unmarked) [CBK026397],60.7285
14,CCOC(=O)c1c(NS(=O)(=O)c2cc(Cl)sc2Cl)sc2c1CCCC2 [CBK050397],83.2229
15,CSC1=Nc2cc(Cl)ccc2SCC1 [CBK019829],17.9946
16,Cc1nc2cc(OCc3ccc(Cn4ccn(C(=O)CCC5CCCC5)c4=O)cc3)ccc2s1 [CBK106641],97.6223
17,OCc1cccc(-c2nccnc2NCc2ccc(F)cc2)c1 [CBK037670],85.3868
18,Cc1nc(-c2ccc(S(=O)(=O)NCC3CC3)s2)cs1 [CBK085873],78.0698
19,Cc1cccc(C(=O)O)c1NC(=O)Cc1cccc2ccccc12 [CBK268361],91.7972
20,O=c1c2cc(F)ccc2nc2n1CCN(Cc1ccccc1)CC2 [CBK285300],74.6773
21,Cc1ccc(Oc2cc(C)c([N+](=O)[O-])cn2)c(Br)c1 [CBK002823],82.3126
22,CCCn1nc(C)c(-c2cncn2CC(C)N2CCCCC2)c1C (centres unmarked) [CBK281802],84.3043
23,CCCCOc1ccccc1C1CC(=O)Nc2c(-c3ccccc3F)csc21 (centres unmarked) [CBK294439],60.6439
24,OCCN(CC#CCC(O)(c1ccccc1)c1ccccc1)CCO [CBK263623],104.199
25,O=C(Nc1ccccc1-n1ccnc1)c1ncoc1-c1ccc(F)cc1 [CBK282417],114.285
26,NC(=O)CN1CCCN(c2nccc(OCC3COc4ccccc4O3)n2)CC1 (centres unmarked) [CBK084041],72.5296
27,CC(=O)c1[nH]c(C)c(C(=O)N(C)Cc2cc(-c3ccncc3)no2)c1C [CBK306681],33.5911

row,Structure (SMILES),% of control remaining
1,CCOC(=O)c1csc(COc2ccccc2Cl)n1 [CBK057782],115.857
2,CC(=O)N1CCC(C(=O)Nc2cnc(-c3ccc(F)cc3)c(-c3ccco3)n2)CC1 [CBK037038],156.649
3,CCNc1nc(-c2cccc(/C=C/C(=O)O)c2)cn2ccnc12 [CBK066373],136.016
4,O=C(O)CCSc1nccc(C(F)(F)F)n1 [CBK107864],89.8519
5,COc1ccc(CCCC(=O)Nc2cc(N3CCNCC3)nc(SC)n2)cc1OC [CBK050261T],72.528
6,CN1CCN(C(=O)c2nc(SCc3ccccc3)ncc2Cl)CC1 [CBK269003],75.7045
7,COc1ccc(CC(=O)N2CCCC2c2nnc3ccccn23)cc1 (centres unmarked) [CBK304719],86.7135
8,CC1=NN(c2ccc(S(N)(=O)=O)cc2)C(=O)/C1=C\c1ccc(-c2ccc(Cl)c([N+](=O)[O-])c2)o1 [CBK263612],98.6805
9,CCCn1cc(CN2CC3C[C@@H](O)CN3C[C@@H]2C)c2ccccc21 (some centres unmarked) [CBK285466],66.1967
10,Cc1ccccc1C(=O)NC(=S)NCCN1CCOCC1 [CBK288475],47.5076
11,C[C@@H](Cn1nc2c(cc1=O)CCCC2)NC(=O)Cc1cccc(F)c1 [CBK284527],86.1815
12,O=C(Oc1ccc(-c2cnc3ccccc3n2)cc1)c1ccc(S(=O)(=O)N2CCCCC2)cc1 [CBK267812],116.695
13,O[C@@]1(c2ccccn2)CC[C@H]2CN(CC3CCCCC3)C[C@H]21 [CBK282996],107.139
14,CCC(CC)C(=O)N1CCn2c(nnc2-c2cncc(Br)c2)C1 [CBK304409],70.3298
15,CCCCNc1ncncc1-c1ccc(Br)cc1 [CBK005014C],55.1943
16,O=C(c1nccs1)C1CCN(C(=O)c2cc(F)cc(F)c2)CC1 [CBK284200],78.4455
17,O=C1NC(CCSC2=NCN=N2)Oc2ccccc21 (centres unmarked) [CBK009148],39.5338
18,NC(=O)C1CCCN(S(=O)(=O)c2ccc(S(N)(=O)=O)cc2)C1 (centres unmarked) [CBK266312],125.151
19,O=C1CCC(=O)N1CCOc1nccnc1N1CCN(CCc2c[nH]c3ccccc23)CC1 [CBK084304],0.08272
20,CCOC(=O)c1cnn2c(O)cc(CN(CC(C)(C)O)C(C)C)nc12 [CBK306133],66.1704
21,CC(=O)Nc1c[nH]nc1C1CCCN(c2cccc(F)c2C#N)C1 (centres unmarked) [CBK306401],117.902
22,CC[C@H](Cn1ncc2ccccc2c1=O)NC(=O)CC(C)C [CBK284305],44.2937
23,COc1cccc(NC(=O)CC(CN2CCC(O)CC2)C(=O)O)c1 (centres unmarked) [CBK286842],111.602
24,O=[N+]([O-])c1ccccc1CN1C[C@H](O)C[C@H]1c1nc(-c2ccncc2)no1 [CBK288839],104.006
25,COc1ccc2c(c1)CC(=O)NC21CCN(C(=O)N[C@@H](C)c2ccccc2)CC1 [CBK047325],96.0049
26,Cc1ccc(NC(=O)CCC(=O)N/N=C/c2ccco2)c(C)c1 [CBK263885],110.843
27,CCNC(=O)Nc1cc2cccnc2c(-c2ccsc2)n1 [CBK081226],129.625

row,Structure (SMILES),% of control remaining
1,COc1c(Br)cc(Br)cc1/C=C1/SC(=N)NC1=O [CBK119298],95.9466
2,Cc1n[nH]c(O)c1C(c1ccc(OC(=O)c2ccc(F)cc2)cc1)c1c(C)n[nH]c1O [CBK264816],116.224
3,CCc1nc(C(C)NC(=O)COc2nn(C)c3nc(C)cc(C)c23)cs1 (centres unmarked) [CBK306024],72.4029
4,Cn1nc2c(c1C(=O)N1CCc3[nH]c4ccccc4c3C1)CCCC2 [CBK281844],81.4902
5,COc1cccc(N(CC(=O)Nc2ccc(C)c(C)c2)S(=O)(=O)c2ccc(C)cc2)c1 [CBK263761],104.742
6,COc1ccc(C(C)C)cc1-c1nc2ncccc2cc1NC(=O)C(C)C [CBK073659],101.081
7,COCCn1c(SCC(=O)N2CCNC2=O)nc2ccccc21 [CBK305851],59.298
8,O=c1cc(O)cc(CCc2ccccc2)o1 [CBK012714],156.215
9,CC(c1ccc(Cl)cc1Cl)N(C)C(=O)Cn1cnc2c1CCCC2 (centres unmarked) [CBK306387],25.3733
10,c1ccc(N2CCN(CC3CN(c4ccccc4)c4ccccc4O3)CC2)cc1 (centres unmarked) [CBK066876],79.9069
11,O=C(N[C@H]1CCN2C(=O)c3cc(-c4cccs4)ccc3NC(=O)[C@@H]2C1)c1cnccn1 [CBK289559],102.547
12,Cc1ccc(C)c(OCCNS(=O)(=O)c2cc([N+](=O)[O-])ccc2C)c1 [CBK267393],95.5931
13,O=C(c1cncnc1)N1CCN(c2ncccn2)CC1 [CBK144515],106.605
14,CCOC(=O)c1cn([C@H]2CC[C@H](O)CC2)cc(Oc2ccccc2)c1=O [CBK307565],55.0943
15,Cc1ccc(S(=O)(=O)NC(C)C(=O)Nc2ccc(C)c(Cl)c2)cc1 (centres unmarked) [CBK266263],123.918
16,O=C(CCN1C(=O)c2cccc([N+](=O)[O-])c2C1=O)Nc1cccc(-c2cnc3ccccc3n2)c1 [CBK268620],125.025
17,CC(C)C(=O)N1CC2(CCN(Cc3cccc(C(F)(F)F)c3)CC2)c2ccccc21 [CBK126716],61.2703
18,OCCN(CC#CC(O)(c1ccccc1)c1cccc(F)c1)CCO (centres unmarked) [CBK301210C],117.539
19,COc1cccc(C(c2ccccn2)N(C)C(=O)C2CCN(S(=O)(=O)c3c(C)noc3C)CC2)c1 (centres unmarked) [CBK060212],89.6734
20,Cc1cc(C)n(CC(=O)Nc2cccc(CCc3ccncc3)c2)c(=O)n1 [CBK285555],124.088
21,O=C(N[C@H]1COC(=O)N1)OCc1ccccc1 [CBK007606],85.6656
22,COc1ccc(-c2cc(C(=O)Nc3c(C)cccc3C)n[nH]2)c(OC)c1 [CBK288114],89.6289
23,CC12CN3CC(C)(CN(C1)C3c1cc(Br)ccc1O)C2O (centres unmarked) [CBK262664],96.6869
24,Cc1cc(=O)n(C)c(=O)n1CCCN1CCCCC1 [CBK027584],110.198
25,CCOc1ccc(C(=O)CCNCC(=O)O)cc1 [CBK286657],84.1198
26,Cc1ccc(NC(=O)CSc2nnc(-c3cnccn3)s2)cc1 [CBK269872],101.421

# From paper PMC12040169 (PLOS Biology, 2025)
